# Experimental data published in the supplement of paper PMC10115384.
# B1: ADI-67910 (protein)
# chain 1: EVQLVESGGGLVKPGGSLRLSCEASGLSFSSSWMTWVRQAPGKGLEWVGRIKIRKDGGTTDYAAPVKGRFTISRDDSKNTLYLQMNSLETEDTAVYYCTTINRKYDFWSGYSAEQLHWGQGTLVTVSS
# chain 2: QSVLTQPPSVSAAPGQKVTISCSGNSSNIGTNYVSWYQQLPGTAPKLLIYDNNERPSGIPDRFSGSKSGTSATLGITGLQTGDEADYYCGAWDDSLNAGVFGGGTQLTVL
# B2: ADI-67880 (protein)
# chain 1: QVQLVESGGGVVQPGRSLRLSCATSGFTFSSYGMHWVRQAPGKGLEWVSVISYDGSSKYYADSVKGRFTISRDNSKSTLYLQMNSLRAEDTAVYYCAKEFYDSSGSFNTYFYYYYGMDVWGQGTTVTVSS
# chain 2: QSALTQPASVSGSPGQSITISCTGTSSDVGLYNYVSWYQQHPGKAPKVMIYDVSNRPSGVSNRFSGSKAGNTASLTISGLQTEDEADYYCSSYTTSPTLVYVFGTGTKVTVL
# B3: ADI-67869 (protein)
# chain 1: QVQLVESGGGVVQPGRSLRLSCAASGFTFSTYDMHWVRQTPGKGLEWLAIISYDGSTKFYADSVKGRFTISRDNSKNTLSLQMSSLRAEDTAVYYCARPFYDDLSSGTFDYWGQGTLVTVSS
# chain 2: DIQMTQSPSSLSASVGDRVTITCRASQSIGRYLNWYQQKPGKAPKLLIYTASSLQSGVPSRFSGSGSGTDFTLTISALQPEDFATYYCQQTYSTLSITFGQGTRLEIK
# B4: ADI-67971 (protein)
# chain 1: EVQLVESGGGLVQSGRSLRLSCAASGFTFEDYAVHWVRQAPGKGLEWVSGVSWNSGTIGYADSVKGRFFISRDNAKNSLYLQMNGLRPEDTGLYYCAKLGGANAYDFRSGPTAFDIWGQGTMVTVSS
# chain 2: QSVLTQPPSASGTPGQRVTISCSGSTSNIGSNTANWYQQLPGTAPKLLIYSDNQRPSGVPDRFSGSKSGTSASLAISGLQSEDEADYYCATWDDSLNGVVVFGGGTKLTVL
# B5: ADI-67977 (protein)
# chain 1: EVQLVESGGGLVQPGRSLRLSCAASGFTFDDYAMHWVRQAPGKGLEWVSGVTWNSGTIGYADSVKGRFIISRDNAKNSLYLQMNSLRAEDTALYYCVKDMSVGDRSVEYYGMDVWGQGTTVTVSS
# chain 2: SYVLTQPPSVSVAPGKTARITCGGNNIGSKSVHWYQRKPGQAPVLVIYYDSDRPSGIPGRFSGSNSGNTATLTISRVEAGDEADYYCQVWDSSSENVVFGGGTKLTVL
# B6: ADI-67992 (protein)
# chain 1: QVQLQESGPGLVKPSGTLSLTCTVSGGTISSGNWWSWVRQPPGKGLEWIGEIYHSGSTNYNPSLKSRVTISVDKSNNQFSLKLNFVTAADTAVYYCARLNYRFGELDYWGQGTLVTVSS
# chain 2: NFMLTQPHSVSESPGKTVTISCTGSSGSIANNYVQWYQQRPGSAPSTVIYEDNQRPSGVPDRFSGSIDSSSNSASLTISGLKTEDEADYYCQSFDNTNRIFGGGTKLTVL
# B7: ADI-67981 (protein)
# chain 1: QVQLVQSGAEVKKPGSSVKVSCKASGDTFRIYAINWVRQAPGQGLEWMGGIIPISGAPFYAQRFQGRVTITADESTSTAYMELSSLRFEDTAVFYCARDGRHNYDSTGYYHNAFDIWGQGTMVTVSS
# chain 2: DIQMTQSPSSLSTSVGDRVTITCRASQNISNYLNWYQQKPGKAPKLLIYAASSLQSGVPSRFSGTGSGTDFTLTISSLQPEDFGTYYCQQSYSSRTFGQGTKVEIK
# B8: ADI-67983 (protein)
# chain 1: EVQLVESGGGLVQPGGSLRLSCAASGFTFDDYAMHWVRQAPGKGLEWVSGISWSSDSGSIVYADSVEGRFTISRDNAKNSLYLQMNSLRTEDTALYYCAKGKWPSSPSFLTDYWGQGTLVTVSS
# chain 2: DIQMTQSPSSLSASVGDRVTITCRASQGIRNYLAWYQQNPGKVPKLLIYAASTLQPGVPSRFSGSGSGTDYTLTISSLRPEDVGTYYCQKYNSVPLTFGGGTKVEIK
# Target: SARS-CoV-2 Beta spike pseudovirus
# Test: pseudovirus neutralization IC50; higher = weaker neutralization
# Settings: system: VSV particle, 293T-ACE2 cells
# Experimental: (§1)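 Single-round reporter pseudovirus mixed with dilutions of yeast-made human IgG and put on ACE2-bearing cells; IC50 from the dose curve.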
row,Binder,pseudovirus neutralization IC50
1,B1,> 1 µg/mL
2,B2,> 1 µg/mL
3,B3,> 1 µg/mL
4,B4,0.399 µg/mL
5,B5,0.29 µg/mL
6,B6,> 1 µg/mL
7,B7,> 1 µg/mL
8,B8,> 1 µg/mL

# Target: SARS-CoV-2 Delta spike pseudovirus
# Test: as above
# Settings: system: VSV particle, 293T-ACE2 cells
# Experimental: as §1
row,Binder,pseudovirus neutralization IC50
1,B1,> 1 µg/mL
2,B2,> 1 µg/mL
3,B3,> 1 µg/mL
4,B4,> 1 µg/mL
5,B5,0.443 µg/mL
6,B6,> 1 µg/mL
7,B7,0.0117 µg/mL
8,B8,0.0049 µg/mL

# Target: SARS-CoV-2 index (Wuhan-Hu-1) spike pseudovirus
# Test: as above
# Settings: system: VSV particle, 293T-ACE2 cells
# Experimental: as §1
row,Binder,pseudovirus neutralization IC50
1,B2,> 1 µg/mL
2,B3,> 1 µg/mL
3,B4,0.136 µg/mL
4,B5,0.0759 µg/mL
5,B6,> 1 µg/mL
6,B7,0.0094 µg/mL
7,B8,0.0031 µg/mL

# Target: SARS-CoV-2 Omicron BA.1 spike pseudovirus
# Test: as above
# Settings: system: MLV particle, HeLa-ACE2 cells
# Experimental: as §1
row,Binder,pseudovirus neutralization IC50
1,B4,0.133 µg/mL
2,B5,0.0283 µg/mL
3,B7,0.0444 µg/mL

# Target: SARS-CoV-2 index (Wuhan-Hu-1) spike pseudovirus
# Test: as above
# Settings: system: MLV particle, HeLa-ACE2 cells
# Experimental: as §1
row,Binder,pseudovirus neutralization IC50
1,B4,0.0599 µg/mL
2,B5,0.0297 µg/mL
3,B7,0.00509 µg/mL
4,B8,0.0031 µg/mL

# Human monoclonal antibodies (heavy:light variable regions, translated from the printed DNA). IC50 against SARS-CoV-2 spike pseudoviruses, on VSV particles in 293T-ACE2 cells (24 h) or MLV particles in HeLa-ACE2 cells (72 h); lower = stronger; >1.0 µg/ml as printed. No active / inactive call per row; the paper counts an IC50 of 0.4 µg/ml or less on any variant as neutralizing. Only 98 of the paper's 459 antibodies have neutralization values; the two systems are not on one scale.
